Out of some 310,000 compounds screened, about 14,000 (4.5%) showed an effect of 50% or more. Effects have a minus sign here. Some of the results follow.
molecular target: human ether-à-go-go-related gene (hERG) potassium channel (human, UniProt Q12809); experiment: primary screen, population patch clamp on CHO cells stably expressing hERG
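Note: peak tail current of the secondary pulse compared with the same well before compound.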

Sequence of human ether-à-go-go-related gene (hERG) potassium channel (Q12809 whole entry, looked up): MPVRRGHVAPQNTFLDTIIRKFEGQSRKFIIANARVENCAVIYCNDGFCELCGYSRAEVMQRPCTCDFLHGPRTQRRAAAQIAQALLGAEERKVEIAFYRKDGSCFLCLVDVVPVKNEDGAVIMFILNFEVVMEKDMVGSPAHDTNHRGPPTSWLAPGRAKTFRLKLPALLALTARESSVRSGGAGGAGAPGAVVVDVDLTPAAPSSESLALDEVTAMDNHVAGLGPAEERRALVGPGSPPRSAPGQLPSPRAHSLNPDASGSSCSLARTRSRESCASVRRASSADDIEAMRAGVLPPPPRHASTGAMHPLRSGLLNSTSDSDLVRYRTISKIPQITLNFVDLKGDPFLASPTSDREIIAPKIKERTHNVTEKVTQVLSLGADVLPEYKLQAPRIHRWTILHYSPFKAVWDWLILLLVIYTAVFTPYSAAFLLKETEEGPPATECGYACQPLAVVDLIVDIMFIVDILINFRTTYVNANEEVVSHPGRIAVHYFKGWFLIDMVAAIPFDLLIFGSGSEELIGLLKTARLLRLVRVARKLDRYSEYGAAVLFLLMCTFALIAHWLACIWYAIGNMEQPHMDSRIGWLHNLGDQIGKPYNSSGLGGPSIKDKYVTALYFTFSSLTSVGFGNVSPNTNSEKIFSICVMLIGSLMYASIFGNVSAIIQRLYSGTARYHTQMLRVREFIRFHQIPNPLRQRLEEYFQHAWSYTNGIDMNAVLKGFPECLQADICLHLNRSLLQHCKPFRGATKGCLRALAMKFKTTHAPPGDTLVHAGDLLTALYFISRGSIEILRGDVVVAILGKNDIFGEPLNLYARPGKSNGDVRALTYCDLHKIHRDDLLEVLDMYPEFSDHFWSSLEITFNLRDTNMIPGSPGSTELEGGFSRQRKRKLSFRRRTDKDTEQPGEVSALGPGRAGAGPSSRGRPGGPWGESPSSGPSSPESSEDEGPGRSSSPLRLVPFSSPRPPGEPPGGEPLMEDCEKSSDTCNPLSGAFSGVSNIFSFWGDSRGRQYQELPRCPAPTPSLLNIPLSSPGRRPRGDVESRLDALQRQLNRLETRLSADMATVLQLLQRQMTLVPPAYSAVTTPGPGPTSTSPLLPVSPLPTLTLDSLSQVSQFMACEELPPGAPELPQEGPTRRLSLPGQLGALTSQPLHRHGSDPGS

Going from `CC1(C)CC(=O)C2=C(C1)Nc1ncnn1C2c1ccccn1` (stereo not drawn) to `CC1C/C(=N/Nc2nc3ccccc3[nH]2)CC(C)(C)C1` (stereo not drawn), the “hERG current change (%, negative = inhibition) at 10uM” value falls from 8.11% to -13.4%.

Going from `CCC1CCCCN1CCN1C(=O)C2C(C(=O)Nc3cccc(OC)c3)C3C=CC2(O3)C1C(=O)NC1CCCCC1` (stereo not drawn) to `CCCS(=O)(=O)N1CCCC(C(=O)NC2CCCCC2)C1` (stereo not drawn), the “hERG current change (%, negative = inhibition) at 10uM” value rises from -16.7% to 8.01%.

Going from `CCC(c1nnc(SCC(=O)NNC(=O)c2ccccc2)n1Cc1ccccc1)N(C)C` (stereo not drawn) to `O=C(CCc1ccccc1)NNC(=O)c1ccc(NC(=O)c2ccccc2)cc1`, the “hERG current change (%, negative = inhibition) at 10uM” value falls from 9.95% to 2.53%.

Compared with `O=[N+]([O-])c1ccc(/C=N/NC(=S)Nc2ccccc2)o1`, `O=[N+]([O-])c1cccc(-c2ccc(/C=N/NC(=S)NCc3ccco3)o2)c1` is higher in “hERG current change (%, negative = inhibition) at 10uM” value: -0.689% for the first, 13.2% for the second.

Compared with `CS(=O)(=O)N(CC(=O)N1CCc2ccccc2C1)c1ccc(Cl)cc1F`, `COc1ccc(S(=O)(=O)N2CCc3ccccc32)cc1[N+](=O)[O-]` is lower in “hERG current change (%, negative = inhibition) at 10uM” value: -3.5% for the first, -11.6% for the second.

First: O=C1c2ccccc2CC1Sc1nnc(-c2ccncc2)o1 (stereo not drawn)
Second: N#CCSc1nnc(-c2ccccc2O)n1Cc1ccccc1
The “hERG current change (%, negative = inhibition) at 10uM” value of the first is lower: -15.7% for the first, 5.13% for the second.

Going from `O=C1CCC(C(=O)Nc2cccc(C(F)(F)F)c2)N1` (stereo not drawn) to `O=C(CSCc1ccccc1)N1CCN(c2cccc(C(F)(F)F)c2)CC1`, the “hERG current change (%, negative = inhibition) at 10uM” value falls from 22.4% to -2.6%.

Going from `Cc1ccc(NC(=O)CSCC(=O)Nc2cc(Cl)ccc2N2CCOCC2)cc1` to `COC(=O)c1ccc(/C=C2/SC(=S)N(CCC(=O)N3CCOCC3)C2=O)cc1`, the “hERG current change (%, negative = inhibition) at 10uM” value rises from -14.8% to 15.8%.

Compared with `COc1ccc2c(-c3ccccc3)cc(SCC(=O)N(C)C3CCS(=O)(=O)C3)nc2c1` (stereo not drawn), `COc1ccc2cc(C(=O)NCCc3ccccc3)[nH]c2c1` is higher in “hERG current change (%, negative = inhibition) at 10uM” value: -39.7% for the first, 15% for the second.

Going from `CCCCN1C(=O)N(c2ccc(Cl)cc2)C(C)(O)CC1(C)C` (stereo not drawn) to `CCOCCCNC(=O)Cn1cnc2c(cnn2-c2ccc(C)c(C)c2)c1=O`, the “hERG current change (%, negative = inhibition) at 10uM” value falls from 9.21% to 3.91%.

Compared with `Cc1cccc(N2CCN(C(=O)c3cccc(N4C(=O)C5C6C=CC(C6)C5C4=O)c3)CC2C)c1` (stereo not drawn), `Cc1nc2ccc(S(=O)(=O)NCC(=O)N3CCN(c4ccccc4)CC3)cc2s1` is lower in “hERG current change (%, negative = inhibition) at 10uM” value: -0.155% for the first, -1.33% for the second.

Going from `O=C(CCn1c(=O)sc2ccccc21)NC1CCCCC1` to `COc1ccc(S(=O)(=O)NC2CCCCC2)cc1F`, the “hERG current change (%, negative = inhibition) at 10uM” value falls from 3.46% to -1.55%.

First: CCCCCCNCC1OCc2ccccc2CO1
Second: CNC[C@H](CC1CCCCC1)NC[C@H](CO)NCC1(c2ccccc2)CC1
The “hERG current change (%, negative = inhibition) at 10uM” value of the first is lower: -25.4% for the first, 27% for the second.

First: O=S(=O)(Nc1ccc2c(c1)nc1n2CCN(Cc2ccccc2)C1)c1ccc(Cl)cc1
Second: Cc1ccc(S(=O)(=O)NCc2c(-c3ccccc3)c3cc(Cl)ccc3[nH]c2=O)cc1
The “hERG current change (%, negative = inhibition) at 10uM” value of the first is lower: -2.38% for the first, 7.18% for the second.

First: Cc1ccc(CNC(=O)COc2ccc(C(=O)c3ccc(F)cc3)cc2)cc1
Second: COc1ccc(NC(=O)CC2C(=O)N(c3ccc(F)cc3)C(=S)N2NC(=O)c2ccccc2)cc1 (stereo not drawn)
The “hERG current change (%, negative = inhibition) at 10uM” value of the first is lower: -12.9% for the first, 3.61% for the second.

Compared with `COc1ccc(CC(=O)Nc2ccc(-c3csc(C)n3)cc2)cc1`, `COc1cccc(-c2ccc(C#N)c(SCC(=O)NCCc3ccc(Cl)cc3)n2)c1` is lower in “hERG current change (%, negative = inhibition) at 10uM” value: 7.89% for the first, 0.0399% for the second.

Compared with `Cc1nn2c(CN(C(=O)CN3CCOCC3)c3ccccc3)nnc2c2ccccc12`, `CCC(C)(C)n1nnnc1C(c1ccccc1)N1CCN(Cc2ccccc2)CC1` (stereo not drawn) is lower in “hERG current change (%, negative = inhibition) at 10uM” value: -3.15% for the first, -32% for the second.

First: O=C(NCCCN1CCCC1=O)C1CCN(S(=O)(=O)c2cccc(Cl)c2Cl)CC1
Second: Cc1noc(C)c1S(=O)(=O)N1CCC(C(=O)N2CCN(c3ccccc3Cl)CC2)CC1
The “hERG current change (%, negative = inhibition) at 10uM” value of the first is lower: -18.7% for the first, -13.6% for the second.

Going from `C=CCn1c(N2CCCCCC2)nc2c1c(=O)n(C)c(=O)n2C` to `CC(C)N(Cc1ccccc1)C(=O)CN1C(=O)NC2(CCCCCC2)C1=O`, the “hERG current change (%, negative = inhibition) at 10uM” value rises from -9.79% to -6.36%.

Going from `CCCCn1c(N)c(-c2nc3ccccc3s2)c2c([N+](=O)[O-])nn(CC)c(=O)c21` to `C/C=C/c1ccc(OCC(=O)N(CCOC)c2c(N)n(CCCC)c(=O)[nH]c2=O)c(OC)c1`, the “hERG current change (%, negative = inhibition) at 10uM” value falls from 14.3% to 11.2%.

Compared with `Brc1ccc(-c2nnc3sc(CN4CCC5(CC4)OCCO5)cn23)cc1`, `O=C(C1CCCCC1)N1CCN(c2nc(-c3ccc(F)cc3)cs2)CC1` is higher in “hERG current change (%, negative = inhibition) at 10uM” value: 6.54% for the first, 15.1% for the second.

First: COC(=O)[C@H](CC(C)C)NC(=O)Nc1cccc(Br)c1
Second: CCOC(=O)c1ccc(NC(=S)NN2CCN(C)CC2)cc1
The “hERG current change (%, negative = inhibition) at 10uM” value of the first is higher: 7.81% for the first, -3.95% for the second.

Compared with `Cc1ccc(S(=O)(=O)Nc2c(Cl)c(Cl)c(O)c3ccccc23)cc1`, `Cc1ccccc1-c1nc(CS(=O)(=O)CC(=O)NCc2ccc(F)cc2)c(C)o1` is lower in “hERG current change (%, negative = inhibition) at 10uM” value: 10.1% for the first, 4.94% for the second.

First: O=C1OC(N2C(=O)CC[C@H]2C(=O)Nc2ccc(Br)cc2F)c2ccccc21 (stereo partly drawn)
Second: O=c1cc(O)c2c(=O)n(-c3ccccc3)c3c(c2o1)CCCCC3
The “hERG current change (%, negative = inhibition) at 10uM” value of the first is higher: 3.87% for the first, -0.822% for the second.

Compared with `COCCOC(=O)c1c(NC(=O)CN2CCCc3ccccc32)sc(C(N)=O)c1C`, `COc1ccc(N2CC(C(=O)OCC(=O)Nc3ccccc3C)CC2=O)cc1` (stereo not drawn) is higher in “hERG current change (%, negative = inhibition) at 10uM” value: -0.899% for the first, 15.6% for the second.

Going from `O=C(NC(Cc1c[nH]c2ccccc12)c1nnc2n1CCCCC2)c1ccccc1Cl` (stereo not drawn) to `COc1ccccc1CNC(=O)COC(=O)Cc1c(Cl)cccc1Cl`, the “hERG current change (%, negative = inhibition) at 10uM” value rises from 4.83% to 7.12%.

Going from `O=C(CCc1nc2ccccc2c(=O)[nH]1)NCc1ccccn1` to `O=C(CC(=O)NCCc1ccccc1)NCCc1ccccc1`, the “hERG current change (%, negative = inhibition) at 10uM” value falls from 24.4% to 13.7%.

Compared with `CN1CCc2c(sc(/N=C/c3cccs3)c2C(N)=O)C1`, `CC1CCN(c2ccc(/C=N/n3nnnc3N)cc2[N+](=O)[O-])CC1` is higher in “hERG current change (%, negative = inhibition) at 10uM” value: -33.4% for the first, 7.33% for the second.

First: COc1cc(/C=N/NC(=O)c2cn(-c3cccc(C)n3)cn2)ccc1O
Second: COc1ccccc1NC(=O)c1ccc(-n2ccnc2)c([N+](=O)[O-])c1
The “hERG current change (%, negative = inhibition) at 10uM” value of the first is lower: 4.41% for the first, 15.1% for the second.

Compared with `CCN1CCCC1CNC(=O)C(=O)NC(C)C` (stereo not drawn), `CC(C)NC(=O)c1ccc2c(=O)n(C3CCCC3)c(=S)[nH]c2c1` is lower in “hERG current change (%, negative = inhibition) at 10uM” value: 12.1% for the first, -4.07% for the second.

First: Cc1ccnc2nc(C(=O)Nc3nccs3)nn12
Second: C/C(=N/Nc1nc(C)c(C)s1)c1cccc([N+](=O)[O-])c1
The “hERG current change (%, negative = inhibition) at 10uM” value of the first is higher: 11.5% for the first, 4.26% for the second.

Going from `CCOC(=O)N1CCC(NC(=O)C2CCN(S(=O)(=O)c3c(C)noc3C)CC2)CC1` to `Cc1ccc(NC(=O)C2CCN(c3ncnc4sc(C)c(C)c34)CC2)cc1S(=O)(=O)N(C)C`, the “hERG current change (%, negative = inhibition) at 10uM” value falls from 0.661% to -2.54%.

Going from `O=C1C2CCCN2C(c2ccco2)N1c1ccc(F)cc1` (stereo not drawn) to `Cc1nn(-c2ccc(F)cc2)c2sc(C(=O)OCC(=O)N3CCC(C)CC3)cc12`, the “hERG current change (%, negative = inhibition) at 10uM” value falls from 6.05% to -1.12%.

Going from `O=c1cc(C(F)(F)C(F)F)oc2ccccc12` to `Cc1ccc(S(=O)(=O)n2nnc3ccccc32)c(C)c1C`, the “hERG current change (%, negative = inhibition) at 10uM” value rises from 3.32% to 13.2%.

First: COc1ccc(-c2[nH]ncc2CNCCn2cccn2)c(F)c1
Second: COc1ccc(-n2c(Cc3cccn3C)nnc2SCC(=O)Nc2ccc3c(c2)OCO3)cc1
The “hERG current change (%, negative = inhibition) at 10uM” value of the first is lower: -46.1% for the first, -19.3% for the second.

Compared with `N#Cc1nc(-c2ccccc2F)oc1NCc1ccccc1`, `C/C(=N\NC(=O)Cc1ccccc1)c1ccc(Cl)s1` is higher in “hERG current change (%, negative = inhibition) at 10uM” value: 4.98% for the first, 15.8% for the second.

First: COc1ccc(C(c2sc3ncnn3c2O)N2CC(C)OC(C)C2)cc1OC (stereo not drawn)
Second: COc1ccc(Cc2nnc(N/N=C/c3ccc(O)cc3O)[nH]c2=O)cc1OC
The “hERG current change (%, negative = inhibition) at 10uM” value of the first is higher: 11.8% for the first, -3.34% for the second.

Going from `C=CCN(CC=C)S(=O)(=O)c1ncn[nH]1` to `CC(=O)Nc1ccc(S(=O)(=O)N2CCN=C2C)cc1`, the “hERG current change (%, negative = inhibition) at 10uM” value falls from 13.6% to 5.24%.

Compared with `CCCCN1CNC(=S)N(CCc2ccc(OCC)c(OCC)c2)C1`, `CCOc1ccc(C(=O)O)cc1OC` is higher in “hERG current change (%, negative = inhibition) at 10uM” value: 9.26% for the first, 12.4% for the second.

Going from `CC(=O)c1cc(CC=C(C)C)c(O)cc1O` to `CCOC(=O)c1cnc2c(C)cc(C)cc2c1NCCCN1CCOCC1`, the “hERG current change (%, negative = inhibition) at 10uM” value falls from -3.51% to -59.7%.

Compared with `O=[N+]([O-])c1ccc(C(O)CN2CCN(c3ccccc3)CC2)cc1` (stereo not drawn), `CCN1CC=C2C(C#N)=C(N)C(C#N)(C#N)C(CCc3ccccc3)C2C1` (stereo not drawn) is higher in “hERG current change (%, negative = inhibition) at 10uM” value: -50.3% for the first, -47% for the second.

Going from `Cc1sc2nc(CN3CCN(S(=O)(=O)c4cccc5nonc45)CC3)[nH]c(=O)c2c1C` to `CCCn1c(N)c(C(=O)NS(=O)(=O)c2ccc(C)cc2)c(=O)n(C)c1=O`, the “hERG current change (%, negative = inhibition) at 10uM” value rises from -1.9% to 0.404%.

Going from `O=C(O)CC1(CC(=O)Nc2ccc(C(F)(F)F)cc2)CCCC1` to `COc1ccc2nc(SCC(=O)Nc3cc(C)on3)c(C#N)cc2c1`, the “hERG current change (%, negative = inhibition) at 10uM” value falls from 20.8% to 12.8%.

`Br.CO[C@H]1CC=C2CCN3CCC4=C(CC(=O)OC4)[C@]23C1` was tested, and the “hERG current change (%, negative = inhibition) at 10uM” value was 12.7%.

— publication PMC4336329 (PLoS ONE, 2015)
